“And” between values parts separate entries of the source, which are not always exact repeats. Identical values can stand only once. Counter-ions that a name gives are not always drawn.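 Briefly, cells in 96-well plates were exposed to five compound concentrations for 48 h, and endpoints were estimated by linear interpolation. Abbreviation: GI50, concentration required for 50% inhibition of growth.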 The source made the active and inactive calls. Rule as the data show it: active = GI50 up to about 1.1 µM and inactive = higher.

This assay concerns NCI-H322M. Put plainly: NCI-60 cell line screen, 48 h.
Consider `O=C(/C=C/c1ccc(O)cc1)NCCc1ccc(O)cc1` [N-P-COUMAROYL TYRAMINE], for which the GI50 was inactive: 10.2 µM. As to `CC1OC(CC(=O)O)CC2=C1C(=O)c1c(O)cccc1C2=O` (configuration not stated) [NANAOMYCIN], the GI50 is inactive: 1.62 µM.

Take `O=C1C=CC(=O)c2c(O)ccc(O)c21` [NAPHTHAZALIN]: the GI50 is inactive: 8.61 µM. As for `O=C1N[C@@H]2C(=C[C@H](O)[C@@H](O)[C@H]2O)c2cc3c(c(O)c21)OCO3` [NARCICLASINE], the figure is active: 0.045 µM; as for `OC[C@H]1O[C@@H](n2cnc3cncnc32)[C@H](O)[C@@H]1O` [NEBULARINE], inactive: 1.69 µM. With `CO[C@H]1[C@H](O)[C@H](O[C@H]2CC[C@@]3(C)[C@H](CC[C@@H]4[C@@H]3CC[C@]3(C)[C@@H](C5=CC(=O)OC5)CC[C@]43O)C2)O[C@@H](C)[C@@H]1O` [NERIIFOLIN], the GI50 was active: 0.000904 µM.

Take `CO[C@H]1[C@@H](O)[C@@H](C)O[C@@H](O[C@H]2CC[C@@]3(C)[C@H](CC[C@@H]4[C@@H]3CC[C@]3(C)[C@@H](C5=CC(=O)OC5)[C@@H](OC(C)=O)C[C@]43O)C2)[C@@H]1O` [NERITALOSIDE]: the GI50 is active: 0.0409 µM. As for `CC(=O)Oc1ccccc1C(=O)Nc1ncc([N+](=O)[O-])s1` [NITAZOXANIDE], the figure is inactive: 18.7 µM.

In the case of `COc1cc2c[n+](C)c3c4cc5c(cc4ccc3c2cc1OC)OCO5` [NITIDINE CHLORIDE], the GI50 is inactive: 3.52 µM. As for `O=[N+]([O-])O` [NITRIC ACID], the figure is inactive: > 100 µM; as for `Cn1c2ccccc2c(=O)c2c(O)cc3c(c21)C=CC(C)(C)O3` [NORACRONYCINE], inactive: > 25 µM.

With `CC(Cc1ccc(O)c(O)c1)C(C)Cc1ccc(O)c(O)c1` (configuration not stated) [NORDIHYDROGUAIARETIC ACID], the GI50 was inactive: 23.8 µM. As for `CC1=Cc2cccc(C)c2C(=O)C1=O` [O-HIBISCANONE], the figure is inactive: 22.9 µM; as for `CO[C@H]1[C@@H](O)[C@@H](C)O[C@@H](O[C@H]2CC[C@@]3(C)[C@H](CC[C@@H]4[C@@H]3CC[C@]3(C)[C@@H](C5=CC(=O)OC5)CC[C@]43O)C2)[C@@H]1O` [ODOROSIDE H], active: 0.00652 µM. As for `CCCCCCCC/C=C\CCCCCCCC(=O)O` [OLEIC ACID], the GI50 is inactive: 417 µM. For `Cc1[nH]c(/C=C2\C(=O)Nc3ccccc32)c(C)c1CCC(=O)O` [ORANTINIB], the GI50 was inactive: 30.1 µM.

For `CCCN(CCC)c1c([N+](=O)[O-])cc(S(N)(=O)=O)cc1[N+](=O)[O-]` [ORYZALIN], the GI50 is inactive: 17.7 µM. As for `CCN(CC)CC1CCCCN1CC(=O)N1c2ccccc2C(=O)Nc2cccnc21` (configuration not stated) [OTENZEPAD], the figure is inactive: 55.8 µM. As for `COc1ccc2c(c1)N(CCC1CCCCN1C)c1ccccc1S2` (configuration not stated) [OXYRIDAZINE], the figure is inactive: 14.4 µM; as for `CC(=O)O[C@H]1C(=O)[C@]2(C)[C@@H](OC(=O)OCC(O)CO)C[C@H]3OC[C@@]3(OC(C)=O)[C@H]2[C@H](OC(=O)c2ccccc2)[C@]2(O)C[C@H](OC(=O)[C@H](O)[C@@H](NC(=O)c3ccccc3)c3ccccc3)C(C)=C1C2(C)C` (some centres not stated) [PACLITAXEL CERIBATE], active: < 0.01 µM. In the case of `COc1cc(O)c2c(O)c3c(=O)oc(C)cc3c(OC)c2c1` [PAEPALANTINE], the GI50 is inactive: 26.1 µM. As for `O=P(O)(NCCCl)NCCCl` [PALIFOSFAMIDE], the figure is inactive: > 10 µM; as for `C[n+]1ccc(-c2cc[n+](C)cc2)cc1` [PARAQUAT DICHLORIDE], inactive: > 24.9 µM. As for `C/C(=C\c1csc(C)n1)[C@@H]1C[C@@H]2O[C@]2(C)CCC[C@H](C)[C@H](O)[C@@H](C)C(=O)C(C)(C)[C@@H](O)CC(=O)O1` [PATUPILONE], the figure is active: < 0.0001 µM; as for `O=C1Cc2c([nH]c3ccccc23)-c2ccccc2N1` [PAULLONE], inactive: 27.9 µM. As for `COc1c(O)c(OC)c(C(=O)/C=C/c2ccccc2)c(O)c1OC` [PEDICIN], the figure is inactive: 86.9 µM; as for `COc1nc(C(Cl)(Cl)Cl)c(Cl)c(OC)c1Cl` [PENCLOMEDINE], inactive: 43 µM. For `Oc1c(Cl)c(Cl)c(Cl)c(Cl)c1Cl` [PENTACHLOROPHENOL], the GI50 was inactive: 25.2 µM. As for `CCCCCCCCCCCCCCCCCCOP(=O)([O-])OC1CC[N+](C)(C)CC1` [PERIFOSINE], the figure is inactive: 14 µM; as for `C=C(C)[C@@H]1CC=C(CO)CC1` [PERILLYL ALCOHOL], inactive: 292 µM.

With `O=S1(=O)OC(c2ccc(O)cc2)(c2ccc(O)cc2)c2ccccc21` [PHENOLSULFONPHTHALEIN], the GI50 was inactive: > 100 µM.

With `O=S(=O)(F)Cc1ccccc1` [PHENYLMETHYLSULFONYLFLUORIDE], the GI50 is inactive: > 100 µM. As for `OC(CNc1ccccn1)c1ccccc1` (configuration not stated) [PHENYRAMIDOL HYDROCHLORIDE], the figure is inactive: > 100 µM; as for `O=[N+]([O-])c1nccn1CC(O)CN1CCCCC1` (configuration not stated) [PIMONIDAZOLE], inactive: > 100 µM. As for `Cc1cccc(Nc2cc(Cl)nc(SCC(=O)O)n2)c1C` [PIRINIXIC ACID], the figure is inactive: > 100 µM; as for `COc1ccc(OC)c(Cc2cnc3nc(N)nc(N)c3c2C)c1` [PIRITREXIM ISETHIONATE], active: 0.168 µM; as for `CC1=CC(=O)c2c(O)cccc2C1=O` [PLUMBAGIN], inactive: 16.3 µM. As for `C/C=C1/C(=O)O[C@]23C=C[C@@H]4C(C(=O)OC)=CO[C@H](O[C@@H]12)[C@@H]43` [PLUMERICIN], the figure is inactive: 2.37 µM; as for `CC(C)=CCc1c2c(c3occ(-c4ccc(O)c(O)c4)c(=O)c3c1O)C=CC(C)(C)O2` [POMIFERIN], inactive: 3.74 µM; as for `C=C(CC[C@@H](C(=O)O)[C@H]1[C@H](O)C[C@@]2(C)C3=CC[C@@H](C(=C)C)[C@](C)(CCC(=O)O)C3=CC[C@]12C)C(C)C` [PORICOIC ACID A], inactive: 17.7 µM. As to `C[C@]12C=CC(=O)C=C1CC[C@@H]1[C@@H]2C(=O)C[C@@]2(C)[C@H]1CC[C@]2(O)C(=O)CO` [PREDNISONE], the GI50 was inactive: > 100 µM. In the case of `COc1cc(NC(C)CCCN)c2ncccc2c1` (configuration not stated) [PRIMAQUINE PHOSPHATE], the GI50 was inactive: 55.1 µM. As for `CC(C)(Sc1cc(C(C)(C)C)c(O)c(C(C)(C)C)c1)Sc1cc(C(C)(C)C)c(O)c(C(C)(C)C)c1` [PROBUCOL], the figure is inactive: > 100 µM; as for `CNNCc1ccc(C(=O)NC(C)C)cc1` [PROCARBAZINE HYDROCHLORIDE], inactive: > 500 µM; as for `O=C(O)CCc1nc2ccccc2[nH]1` [PROCODAZOLE], inactive: > 100 µM. As for `CCCC1(CC(=O)O)OCCc2c1[nH]c1ccccc21` (configuration not stated) [PRODOLIC ACID], the figure is inactive: > 100 µM. As for `CC(=O)[C@H]1CC[C@H]2[C@@H]3CCC4=CC(=O)CC[C@]4(C)[C@H]3CC[C@]12C` [PROGESTERONE], the figure is inactive: 35.3 µM. `O=C(O)[C@@H]1CCCN1` [PROLINE]: the GI50 is inactive: > 100 µM. As for `COc1cc2c3c(c1OC)C1(C=CC(=O)C=C1)C[C@H]3N(C)CC2` [PRONUCIFERINE], the figure is inactive: > 100 µM; as for `CCCOC(=O)c1cc(O)c(O)c(O)c1` [PROPYL GALLATE], inactive: 54.2 µM; as for `OC(CCl)CN1CC[N+]2(CC1)CC[N+]1(CCN(CC(O)CCl)CC1)CC2` (configuration not stated) [PROSPIDIUM CHLORIDE], inactive: > 50 µM. Consider `CN[C@@H](C)[C@@H](O)c1ccccc1` [PSEUDOEPHEDRINE HYDROCHLORIDE], for which the GI50 is inactive: > 100 µM. As for `c1cn[nH]c1` [PYRAZOLE], the figure is inactive: > 10 µM. As for `O=C(CCCCCCC(=O)Nc1cccnc1)NO` [PYROXAMIDE], the figure is inactive: 3.1 µM; as for `Oc1ccc2c(c1)CC[N+]1=C2CCC2CCCC21` (configuration not stated) [QUINDONIUM BROMIDE], inactive: > 100 µM; as for `Nc1n[nH]c2nc3ccccc3nc12` [QUINOXALINE1], inactive: 66.2 µM. With `C[C@@H](Oc1ccc(Oc2cnc3ccc(Cl)cc3n2)cc1)C(=O)O` [R(+)XK469], the GI50 is inactive: > 100 µM. In the case of `Cc1cc(O)c2c(c1)C(=O)C=CC2=O` [RAMENTACEONE], the GI50 is inactive: 19.3 µM and inactive: 20.9 µM. As to `NC(Cc1cc(I)c(Oc2ccc(O)c(I)c2)c(I)c1)C(=O)O` (configuration not stated) [RATHYRONINE], the GI50 was inactive: > 100 µM. As for `CC(CN1CC(=O)NC(=O)C1)N1CC(=O)NC(=O)C1` (configuration not stated) [RAZOXANE], the GI50 is inactive: 434 µM. With `CC1CC(C)(O)CC(C(O)CC2CC(=O)NC(=O)C2)C1=O` (configuration not stated) [RESACTIN A], the GI50 is active: 0.0382 µM.

As for `COc1cc(O)c2c(=O)c(OC)c(-c3ccc(OC)c(OC)c3)oc2c1` [RETUSIN], the GI50 is inactive: 41 µM. On to `COc1cc(O)c2c(=O)c(O)c(-c3ccc(O)c(O)c3)oc2c1` [RHAMNETIN], for which the GI50 was inactive: 8.85 µM. As for `COc1cc(O)c(C(=O)/C=C/c2ccc(O)cc2)cc1Oc1ccc(/C=C/C(=O)c2ccc(O)cc2O)cc1` [RHUSCHALCONE III], the figure is inactive: 10 µM; as for `COc1cc(O)c(C(=O)/C=C/c2ccc(O)cc2)cc1Oc1ccc(C(=O)/C=C/c2ccc(O)cc2)c(O)c1` [RHUSCHALCONE IV], inactive: 2.91 µM; as for `COc1ccc(C(=O)/C=C/c2ccc(Oc3cc(C(=O)/C=C/c4ccc(O)cc4)c(O)cc3OC)cc2)c(O)c1` [RHUSCHALCONE I], inactive: 56.6 µM.

Turning to `CO[C@H]1/C=C/O[C@@]2(C)Oc3c(C)c(O)c4c(O)c(c(/C=N/N5CCN(C)CC5)c(O)c4c3C2=O)NC(=O)/C(C)=C\C=C\[C@H](C)[C@H](O)[C@@H](C)[C@@H](O)[C@@H](C)[C@H](OC(C)=O)[C@@H]1C` [RIFAMPIN], the GI50 was inactive: > 100 µM.

The values are drawn from ChEMBL document CHEMBL1201862, “PubChem BioAssay data set” (2004).
